Results as given in PubChem BioAssay AID686971 (National Center for Advancing Translational Sciences (NCATS), 2013).
About 7,500 (2.1%) of roughly 360,000 compounds were called active. The inconclusive results got no clear call from the source; some entries with a clear call stand among them for comparison. Calls come from the whole dose curve; as a rule, active = well fitted cell-killing curve with a large enough effect; inconclusive = small, poorly fitted or top-dose-only effect, or effect the other way, or another doubt; inactive = no such curve, though single readings can be large or run the other way. Potencies of inconclusive entries are left out as doubtful fits.

Experiment: qHTS for induction of synthetic lethality in tumor cells producing 2HG: qHTS for the HT-1080-IDH1KD cell line;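 for activity, negative = toxicity: 0% = DMSO wells and -100% = cell-free medium wells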
Conditions: HT-1080 IDH1 knockdown viability, ATP luminescence, 48 h; activity, negative = toxicity: at 46.1 µM (top of the series) unless noted
In short: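 Cytotoxicity counter-line: IDH1KD HT-1080, 48 h, CellTiter-Glo. Curves classed by r2, magnitude and activity.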
Potency is the fitted concentration of half-maximal effect; tags give direction and shape of the fitted curve.

Compound	activity, negative = toxicity	Potency
Cn1c(NCc2ccc3occc3c2)nc2cc(-c3cccc(C(F)(F)F)c3)sc2c1=O	inactive: 4.55%	
CN1CCN(c2ccc(Cl)cc2NC(=O)C2COc3ccccc3O2)CC1 (stereo unspecified)		inconclusive [cytotoxic, partial curve]
O=C1NC[C@H](Cc2ccccc2)N(C[C@@H]2CCCN2C[C@H](Cc2ccccc2)N2C[C@H](Cc3ccccc3)N(CCc3ccccc3)C(=O)C2=O)C1=O		inconclusive [cytotoxic, single point]
Cc1ccccc1-c1ccc(/C=C2/SC(N3CCOCC3)=NC2=O)o1		inconclusive [cytotoxic, full curve]
COc1ccc(N2C(=O)CC(Sc3nc4ccccc4s3)C2=O)cc1 (stereo unspecified)	inactive: 7.09%	
Fc1ccccc1/C=N/n1c(COc2ccccc2)n[nH]c1=S	inactive: -1.72%	
Cc1ccc(-c2nn(-c3ccccc3)cc2/C=C2\SC(=S)N(CCCCCC(=O)O)C2=O)o1		inconclusive [cytotoxic, single point]
COc1ccc(N2CCN(CCCNC(=O)c3ccc(CS(=O)(=O)c4ccc(OC)cc4)o3)CC2)cc1	inactive: -0.782%	
O=C(CCCOc1ccc(Cl)cc1Cl)N/N=C/c1ccc(Cl)cc1		inconclusive [cytotoxic, single point]
Cc1cccn2c(=O)c(C(=O)NC3CCCCC3C)c(O)nc12 (stereo unspecified)		inconclusive [cytotoxic, partial curve]
COc1cccc(C(=O)N2c3ccccc3Sc3ccccc32)c1		inconclusive [cytotoxic, single point]
COc1cc2ccccc2cc1C(=O)N(CCN(C)C)c1nc2ccc(Br)cc2s1		inconclusive [cytotoxic, single point]
COc1cc(-c2nnc(CSc3nnc(Nc4ccc(C(C)C)cc4)s3)o2)cc(OC)c1OC		active: 16.4 µM
COc1ccc(NC(=O)c2cc(-c3cc(C)cc(F)c3)n[nH]2)cc1OC		inconclusive [cytotoxic, partial curve]
CCOC(=O)c1c(NC(=O)CSc2nnnn2-c2ccccc2)sc2c1CC(C)(C)NC2(C)C		active: 23.1 µM
Cc1cc(C(=O)N/N=C/c2cc(N=Nc3ccccc3)ccc2O)n[nH]1		inconclusive [cytotoxic, full curve]
COc1ccc(CCNc2oc(-c3ccc(OC)c(OC)c3)nc2C#N)cc1	inactive: 14.6%	
CCN(CC)c1ccc(CNc2nc3ccccc3n2C)cc1	inactive: -11.5%	
CCc1ccc2[nH]c(=O)c(CN(CCCN3CCOCC3)C(=O)Nc3ccc(F)cc3)cc2c1		inconclusive [cytotoxic, single point]
Cc1ccc2nc(NC(=O)c3ccccn3)sc2c1		active: 2.31 µM
O=[N+]([O-])c1ccc(NCCNS(=O)(=O)c2ccccc2)c(C(F)(F)F)c1		inconclusive [cytotoxic, single point]
O=C(Nc1ccccc1-c1ccccc1)c1ccccc1Br		inconclusive [cytotoxic, single point]
CC(=O)c1cnc(N2CCCCC2)nc1C	inactive: -0.498%	

Compound	activity, negative = toxicity	Potency
CCN1CCN(c2ccc(S(=O)(=O)N3CCOCC3)cc2NC(=O)C2CCC(C(C)(C)C)CC2)CC1 (stereo unspecified)		inconclusive [cytotoxic, single point]
CCC(=O)NC1=C(Cl)C(=O)C(NC(=O)CC)=C(Cl)C1=O		active: 18.4 µM
COc1ccc(N/C=C/C(=O)c2ccc(OC)c(OC)c2)cc1		inconclusive [cytotoxic, single point]
COc1cccc(C2Oc3ccccc3C3CC(c4cccs4)=NN32)c1 (stereo unspecified)		inconclusive [cytotoxic, single point]
COc1ccc(OCCCC(=O)N(C)CC(=O)Nc2c(C)cccc2C)cc1	inactive: -1.04%	
CN(Cc1ccccc1)C(=O)c1cccnc1	inactive: 12.3%	
COc1ccc(-c2noc(N3CCCC(C(=O)Nc4cc(F)ccc4F)C3)n2)cc1 (stereo unspecified)	inactive: 1.48%	
CC(C)(C)c1ccc(-c2noc(CCC(N)=O)n2)cc1	inactive: 8.56%	
CCCn1c(Nc2nc3ccccc3n2C)nc2ccccc21		active: 16.4 µM
Cc1cc2nc(-c3ccco3)c(Cc3cccc(Cl)c3)n2c(C)c1Br		active: 20.6 µM
COc1ccc(/C=N\NC(=O)c2cccc(F)c2)cc1COc1ccccc1		active: 0.58 µM
COc1ccccc1N1CCN(C(=O)C(=O)c2c(C)n(C)c3ccccc23)CC1		inconclusive [cytotoxic, single point]
O=C(NCc1ccccc1)c1ccc(CN2CCC(Cc3ccccc3)CC2)cc1		inconclusive [cytotoxic, single point]
Cc1ccc(C)c(OCc2nnc(NC(=O)c3ccco3)s2)c1		inconclusive [cytotoxic, single point]
O=C(COc1ccc(Cl)cc1)Nc1c(-c2cccs2)nc2ccccn12		inconclusive [cytotoxic, partial curve]
CC(=O)N1CCc2cc(S(=O)(=O)C(C)CC(=O)Nc3ccc(OC(F)(F)F)cc3)ccc21 (stereo unspecified)	inactive: -18%	
COC1C(OC(=O)/C=C/C=C/C=C/C=C/C(=O)O)CCC2(CO2)C1C1(C)OC1CC=C(C)C (stereo unspecified) (tested in a mixture with another compound)	inconclusive: -15.5% [cytotoxic]	
COc1ccc(Cl)cc1NC(=O)CN(C)CC(=O)Nc1ccc(C)cc1Br	inactive: -11.8%	
CCOC(=O)/C(=N\Nc1cccc(C(F)(F)F)c1)N(CCOC)CCOC	inactive: -4.82%	
C[C@@]12C(=O)N(Cc3ccccc3)CC(=O)N1[C@H]1c3ccccc3OC[C@@H]1[C@@H]2c1ccccc1		inconclusive [cytotoxic, single point]
CCOC(=O)C1(Cc2ccccc2C)CCCN(C(=O)c2sccc2C)C1 (stereo unspecified)	inactive: -0.347%	
CC(C)Cn1c(N)c(C(=O)COC(=O)CC23CC4CC(CC(C4)C2)C3)c(=O)n(C)c1=O		inconclusive [cytotoxic, single point]
Cc1ccc(S(=O)(=O)N2CCOC2CNC(=O)C(=O)NCc2ccncc2)cc1 (stereo unspecified)	inactive: -1.64%	
